# Data taken from PubChem BioAssay AID1671193 (National Center for Advancing Translational Sciences (NCATS), 2021).
# Several values for one entry are separate records, joined by “and”; a condition that tells them apart may be missing. Equal values may be shown once. Out of some 150,000 compounds screened, about 180 (0.12%) were called active. This list was built around the results that the source calls inconclusive (neither active nor inactive); the mix of calls is not that of the screen. The call rests on the fitted dose curve; in most records, active means well fitted cell-killing curve with a large enough effect; inconclusive means small, poorly fitted or top-dose-only effect, or effect the other way; inactive means flat fitted curve, though single readings scatter. A potency beside an inconclusive call is a rough fit, not a confirmed value.
# Test: GF-AFC viability counterscreen for inhibitors of alpha-synuclein gene (SNCA) expression; further: nearly all actives have a fitted effect of over 30% in size
# Conditions: HEK-293-SNCA-luc viability, GF-AFC fluorescence, 24 h; series mostly up to 57.1 µM
# Outline: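 HEK-293-SNCA-luc cells (1500/well) plated 24 h, then exposed 24 h to a dilution series; GF-AFC added 30 min at 37C, fluorescence 405/540 nm; normalised to medium-only and DMSO wells, Hill fit.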
# Potency means the concentration at half of the fitted maximal effect; tags describe the fitted curve by direction and shape.
row,SMILES,Potency
1,Cc1nonc1CC(=O)N1C[C@H](O)[C@@H](N2CCC(O)CC2)C1,inactive
2,C=CCON=C(C[C@H]1O[C@@H]2O[C@]3(C)CC[C@@H]4[C@H](C)CC[C@@H]([C@H]1C)[C@@]24OO3)[C@H]1O[C@@H]2O[C@]3(C)CC[C@H]4[C@H](C)CC[C@@H]([C@@H]1C)[C@@]24OO3,"inconclusive: 1.92 µM [cytotoxic, full curve, poor fit]"
3,COc1ccc2c(c1OC)CN1CCc3cc4c(cc3C1C2)OCO4 (centres undefined),"inactive and inconclusive: 13.6 µM [cytotoxic, partial curve, poor fit]"
4,CNC(=O)c1ccc(N2C(=S)N(c3ccc(C#N)c(C(F)(F)F)c3)C(=O)C23CCC3)cc1F,"inconclusive: 5.32 µM [cytotoxic, single point]"
5,COc1cncc(CN2CCC3(CC2)C(=O)Nc2cc(OC4CCCC4)c(OC)cc23)c1,"inconclusive: 31.6 µM [cytotoxic, single point]"
6,C[C@H]1O[C@@H](O[C@H]2[C@@H](O)C[C@H](O[C@H]3[C@@H](O)C[C@H](O[C@H]4CC[C@@]5(C)[C@H](CC[C@@H]6[C@@H]5CC[C@]5(C)[C@@H](C7=CC(=O)OC7)CC[C@]65O)C4)O[C@@H]3C)O[C@@H]2C)C[C@H](O)[C@@H]1O,"inconclusive: 0.199 µM [cytotoxic, full curve, poor fit]"
7,CCCCCn1cc(C(=O)Oc2cccc3cccnc23)c2ccccc21,"inconclusive: 4.23 µM [rising, partial curve, poor fit]"
8,CNc1ccc2oc(C[C@H]3O[C@@]4(CC[C@H]3C)O[C@H](C(C)C(=O)c3ccc[nH]3)[C@H](C)C[C@H]4C)nc2c1C(=O)O (some centres undefined),active: 9.47 µM
9,CC(C)(O)/C=C/C(=O)[C@](C)(O)[C@H]1[C@H](O)C[C@@]2(C)[C@@H]3CC=C4[C@@H](C[C@H](O)C(=O)C4(C)C)[C@]3(C)C(=O)C[C@]12C,"inconclusive: 0.822 µM [cytotoxic, full curve]"
10,COc1ccc(C(=O)NC[C@H]2C[C@@H]3CCN2C[C@@H]3c2cc(-c3ccc4ccccc4c3)nn2C)cc1,"inconclusive: 39.8 µM [cytotoxic, single point]"
11,COc1ccccc1-c1cc([C@H]2CN3CC[C@H]2C[C@@H]3COC(=O)Nc2ccccc2)nc(C)n1,inactive
12,CC(=O)OC[C@]12C[C@H](OC(=O)CC(C)C)C(C)=C[C@H]1O[C@@H]1[C@H](O)C[C@@]2(C)[C@]12CO2,"inconclusive: 0.412 µM [cytotoxic, full curve]"
13,Cc1cccc(CN2C(=O)CN=C(c3ccccc3Cl)c3cc(Cl)ccc32)c1,"inconclusive: 39.8 µM [cytotoxic, single point]"
14,CC(C)(C)c1cc(C=C(C#N)C#N)cc(C(C)(C)C)c1O,"inconclusive: 2.51 µM [cytotoxic, full curve, poor fit]"
15,C[C@@H]1C[C@@H]([C@H](O)CC2CC(=O)NC(=O)C2)C(=O)[C@@H](C)C1,"inconclusive: 4.29 µM [cytotoxic, full curve]"
16,CCOC(=O)Nc1ccc(NCc2ccc(F)cc2)cc1N,"inconclusive: 30.4 µM [cytotoxic, single point]"
17,COc1cc2c(cc1OCc1ccccc1)N(C(=O)c1c[nH]c3ccccc13)CC21CCN(C)CC1,active: 25.1 µM
18,COCc1cn(C[C@H]2CC3CCN2C[C@@H]3C(=O)NC2CCCCC2)nn1 (some centres undefined),"inconclusive: 25.1 µM [cytotoxic, partial curve, poor fit]"
19,O=C(C[C@@H]1NCCC[C@H]1O)Cn1cnc2ccccc2c1=O,"inconclusive: 0.119 µM [cytotoxic, full curve]"
20,Cc1nc(-c2cccs2)cc([C@H]2CN3CC[C@H]2C[C@@H]3COC(=O)Nc2cccc(C(F)(F)F)c2)n1,"inconclusive: 39.8 µM [cytotoxic, single point]"
21,Cc1cccc(-n2c(/C=C/c3cccc4ccccc34)nc3ccccc3c2=O)c1,"inconclusive: 20 µM [cytotoxic, single point]"
22,CCCCCC(=O)N1C[C@H](C(=O)OCC)[C@H]2c3ccccc3N(CC3CC3)C(=O)[C@]21C,inactive
23,COc1ccc(NC(=O)OC[C@H]2C[C@@H]3CCN2C[C@@H]3c2cc(-c3ccc(N(C)C)cc3)nc(C)n2)cc1,"inconclusive: 35.5 µM [cytotoxic, single point]"
24,C=C(C)C(=O)O[C@H]1[C@@H]2[C@H](C)C(=O)O[C@@H]2C[C@@H](C)[C@@H]2C=CC(=O)[C@]21C,active: 4.65 µM
25,CCC(C)C1NC(=O)C2CCCN2C(=O)C(CC(C)C(=O)O)OC(=O)CCNC(=O)C(C)N(C)C(=O)C(C(C)C)N(C)C1=O (centres undefined),inactive
26,COC1C(=O)N(CC2CC2)C12CCNCC2 (centres undefined),inactive
27,NC(=O)c1ccc(NC(=O)c2cccn(Cc3ccccc3)c2=O)cc1,"inconclusive: 10 µM [rising, partial curve, poor fit]"

row,SMILES,Potency
1,c1ccc(Nc2cc3c(cn2)CN(CC2CC2)CCN3)cc1,"inconclusive: 10 µM [cytotoxic, full curve]"
2,CCN1CCN(C(=O)Cc2ccc(Nc3ncc(F)c(Nc4ccc(C(=O)Nc5ccccc5Cl)cc4)n3)cc2)CC1,"inconclusive: 12.1 µM [cytotoxic, partial curve] and active: 23.8 µM"
3,COc1cccc(S(=O)(=O)N2CCC3(C2)C(=O)N(C)c2ccc(OC)cc23)c1 (centres undefined),"inconclusive: 20 µM [cytotoxic, partial curve, poor fit]"
4,NC(=O)c1ccc(N2CC3CCC(C2)N3CC(F)(F)F)nn1,inactive
5,CCCNC(=O)OC[C@H]1C[C@@H]2CCN1C[C@@H]2c1cc(C(CC)CC)nc(-c2ccncc2)n1,"inconclusive: 25.1 µM [cytotoxic, partial curve, poor fit]"
6,O=C1NCc2ccccc2CC12CCCCN2Cc1ccncc1 (centres undefined),"inconclusive: 5.62 µM [cytotoxic, full curve, poor fit]"
7,O=C(O)CSCC(=O)N1C[C@@H]2C[C@H](C1)c1c(-c3ccccc3F)ccc(=O)n1C2,inactive
8,CN(C)C(=O)[C@H]1CN2CCC1C[C@@H]2Cn1cc(C2(O)CCCCC2)nn1 (some centres undefined),inactive
9,C=C1C(=O)O[C@@H]2[C@H]3C(=C)[C@@H](O)C[C@H]3C(=C)C[C@@H](O)[C@@H]12,"inconclusive: 0.947 µM [cytotoxic, full curve, poor fit]"
10,Cc1cccc(-n2c(CC3C(=O)Nc4ccc(C)cc43)nc3ccccc3c2=O)c1 (centres undefined),"inconclusive: 1.26 µM [cytotoxic, partial curve, poor fit]"
11,COc1ccccc1CNC(=O)[C@H]1CN2CCC1C[C@@H]2Cn1cc(-c2cccc(N)c2)nn1 (some centres undefined),inactive
12,CC1=CC2/C=C(\C)CCC(O)C(O)/C=C/C(=O)C23C(=O)NC(CC(C)C)C3C1C (centres undefined),"inconclusive: 18.4 µM [cytotoxic, single point]"
13,CCC(CC)c1cc([C@H]2CN3CC[C@H]2C[C@@H]3CNC(=O)CSCC(=O)O)nc(-c2ccncc2)n1,inactive
14,O=C(c1ccc2c(c1)N(Cc1ccc(F)cc1Cl)C(=O)c1ccccc1S2)N1CCC2(CC1)OCCO2,"inconclusive: 39.8 µM [cytotoxic, single point]"
15,OC[C@H]1C[C@@H](NC2CCOCC2)[C@H](O)[C@@H]1O,inactive
16,CC[C@@H](C)[C@H]1C(=O)O[C@H](C(C)C)C(=O)N(C)[C@@H](C(C)C)C(=O)O[C@H](C(C)C)C(=O)N(C)[C@@H](C(C)C)C(=O)O[C@H](C(C)C)C(=O)N1C,"inconclusive: 6.3 µM [cytotoxic, partial curve, poor fit]"
17,Cc1nc(-c2ccccc2)cc([C@H]2CN3CC[C@H]2C[C@@H]3CNC2CCN(C)CC2)n1,"inconclusive: 28.2 µM [cytotoxic, partial curve]"
18,CCCCc1nc2ccccc2c(=O)n1-c1cccc(OC)c1,"inconclusive: 6.31 µM [cytotoxic, partial curve, poor fit]"
19,COc1nn(CSP(=S)(OC)OC)c(=O)s1,"inconclusive: 2.51 µM [rising, full curve, poor fit]"
20,Cc1sc2c(c1C)C(c1ccc(Cl)cc1)=N[C@@H](CC(N)=O)c1nnc(C)n1-2,"inconclusive: 2.99 µM [rising, single point]"
21,COc1cc2c(cc1CCc1ccccc1)N(C(=O)C(C)C)CC21CCN(C(C)=O)CC1,"inconclusive: 35.5 µM [cytotoxic, partial curve, poor fit]"
22,COC1CCCC(C)OC(=O)Cc2cc(O)cc(O)c2C(=O)C1 (centres undefined),"inconclusive: 26.1 µM [cytotoxic, single point]"
23,O=C(Nc1ccc2c(c1)OCCO2)c1cccn(Cc2cccc([N+](=O)[O-])c2)c1=O,inactive
24,CC(C)NC(=O)N1C[C@@H]2C[C@H](C1)c1ccc(-c3cccc(C(F)(F)F)c3)c(=O)n1C2,inactive
25,COc1ccc(N(C(=O)Oc2c(C)cccc2C)c2ccnc(Nc3ccc(N4CCN(C)CC4)cc3)n2)c(OC)c1,"inconclusive: 3.77 µM [rising, partial curve, poor fit]"
26,COc1cc2c(cc1OCc1ccccc1)N([S+](=O)([O-])c1ccccc1C(F)(F)F)CC21CCN(C)CC1,"inconclusive: 39.8 µM [cytotoxic, single point]"
27,Cc1nc(-c2ccc(N(C)C)cc2)cc([C@H]2CN3CC[C@H]2C[C@@H]3COC(=O)Nc2ccc(C(C)C)cc2)n1,"inconclusive: 31.6 µM [cytotoxic, partial curve, poor fit]"
